# From the supplement of paper PMC8728848
# The list shows a part of the results.
# Columns and labels:
# Assay in all cases: glycan array binding signal (z-score within array); higher = stronger binding
# Details in all cases: glycan notation: IUPAC condensed, linker removed
# [1] = target: Fuc(a1-3)[Gal3S(b1-4)]GlcNAc6S
# Procedure, shortened: (§1)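 The Consortium for Functional Glycomics database supplied 3228 glycan arrays, of which those lacking an available protein sequence were dropped. The binding signal, a within-array Z-score, was averaged across arrays of the same protein sequence and across linkers. Negative scores can be read as non-binding.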
# [2] = target: Fuc(a1-3)[GalNAc(b1-4)]GlcNAc
# Procedure, shortened: as §1
# [3] = target: Fuc(a1-3)[GalNAc(b1-4)]GlcNAc6S
# Procedure, shortened: as §1
# Fuc(a1-4)GlcNAc = target: Fuc(a1-4)GlcNAc
# Procedure, shortened: as §1
# Fuc(b1-3)GlcNAc = target: Fuc(b1-3)GlcNAc
# Procedure, shortened: as §1
# Gal(a1-2)Gal = target: Gal(a1-2)Gal
# Procedure, shortened: as §1
# Gal(a1-3)Gal = target: Gal(a1-3)Gal
# Procedure, shortened: as §1
# Gal(a1-3)Gal(b1-3)GlcNAc = target: Gal(a1-3)Gal(b1-3)GlcNAc
# Procedure, shortened: as §1
# [4] = target: Gal(a1-3)Gal(b1-3)GlcNAc(b1-2)Man
# Procedure, shortened: as §1
# [5] = target: Gal(a1-3)Gal(b1-3)GlcNAc(b1-2)Man(a1-3)[Gal(a1-3)Gal(b1-3)GlcNAc(b1-2)Man(a1-6)]Man(b1-4)GlcNAc(b1-4)GlcNAc
# Procedure, shortened: as §1
# [6] = target: Gal(a1-3)Gal(b1-3)GlcNAc(b1-3)GalNAc
# Procedure, shortened: as §1
# [7] = target: Gal(a1-3)Gal(b1-3)GlcNAc(b1-6)GalNAc
# Procedure, shortened: as §1
# [8] = target: Gal(a1-3)Gal(b1-3)[Fuc(a1-4)]GlcNAc(b1-2)Man(a1-3)[Gal(a1-3)Gal(b1-3)[Fuc(a1-4)]GlcNAc(b1-2)Man(a1-6)]Man(b1-4)GlcNAc(b1-4)GlcNAc
# Procedure, shortened: as §1
# Gal(a1-3)Gal(b1-4)Glc = target: Gal(a1-3)Gal(b1-4)Glc
# Procedure, shortened: as §1
# Gal(a1-3)Gal(b1-4)GlcNAc = target: Gal(a1-3)Gal(b1-4)GlcNAc
# Procedure, shortened: as §1
# [9] = target: Gal(a1-3)Gal(b1-4)GlcNAc(b1-2)Man
# Procedure, shortened: as §1
# [10] = target: Gal(a1-3)Gal(b1-4)GlcNAc(b1-2)Man(a1-3)[Gal(a1-3)Gal(b1-4)GlcNAc(b1-2)Man(a1-6)]Man(b1-4)GlcNAc(b1-4)GlcNAc
# Procedure, shortened: as §1
# [11] = target: Gal(a1-3)Gal(b1-4)GlcNAc(b1-3)GalNAc
# Procedure, shortened: as §1
# [12] = target: Gal(a1-3)Gal(b1-4)GlcNAc(b1-6)GalNAc
# Procedure, shortened: as §1
# [13] = target: Gal(a1-3)Gal(b1-4)[Fuc(a1-3)]GlcNAc
# Procedure, shortened: as §1
# [14] = target: Gal(a1-3)Gal(b1-4)[Fuc(a1-3)]GlcNAc(b1-2)Man(a1-3)[Gal(a1-3)Gal(b1-4)[Fuc(a1-3)]GlcNAc(b1-2)Man(a1-6)]Man(b1-4)GlcNAc(b1-4)GlcNAc
# Procedure, shortened: as §1
# Gal(a1-3)GalNAc = target: Gal(a1-3)GalNAc
# Procedure, shortened: as §1
# [15] = target: Gal(a1-3)[Gal(a1-4)]Gal(b1-4)GlcNAc
# Procedure, shortened: as §1
# [16] = target: Gal(a1-4)Gal(b1-3)GlcNAc(b1-2)Man(a1-3)[Gal(a1-4)Gal(b1-3)GlcNAc(b1-2)Man(a1-6)]Man(b1-4)GlcNAc(b1-4)GlcNAc
# Procedure, shortened: as §1
# Gal(a1-4)Gal(b1-4)Glc = target: Gal(a1-4)Gal(b1-4)Glc
# Procedure, shortened: as §1
# Gal(a1-4)Gal(b1-4)GlcNAc = target: Gal(a1-4)Gal(b1-4)GlcNAc
# Procedure, shortened: as §1
# [17] = target: Gal(a1-4)Gal(b1-4)GlcNAc(b1-2)Man(a1-3)[Gal(a1-4)Gal(b1-4)GlcNAc(b1-2)Man(a1-6)]Man(b1-4)GlcNAc(b1-4)GlcNAc
# Procedure, shortened: as §1
# [18] = target: Gal(a1-4)Gal(b1-4)GlcNAc(b1-3)Gal(b1-4)Glc
# Procedure, shortened: as §1
# Gal(a1-4)GlcNAc = target: Gal(a1-4)GlcNAc
# Procedure, shortened: as §1
# Gal(a1-6)Glc = target: Gal(a1-6)Glc
# Procedure, shortened: as §1
# Gal(b1-2)Gal = target: Gal(b1-2)Gal
# Procedure, shortened: as §1
# Gal(b1-3)Gal = target: Gal(b1-3)Gal
# Procedure, shortened: as §1
# Gal(b1-3)Gal(b1-4)GlcNAc = target: Gal(b1-3)Gal(b1-4)GlcNAc
# Procedure, shortened: as §1
# Gal(b1-3)GalNAc = target: Gal(b1-3)GalNAc
# Procedure, shortened: as §1
# [19] = target: Gal(b1-3)GalNAc(a1-3)[Fuc(a1-2)]Gal(b1-4)Glc
# Procedure, shortened: as §1
# [20] = target: Gal(b1-3)GalNAc(a1-3)[Fuc(a1-2)]Gal(b1-4)GlcNAc
# Procedure, shortened: as §1
# Gal(b1-3)GalNAc(b1-3)Gal = target: Gal(b1-3)GalNAc(b1-3)Gal
# Procedure, shortened: as §1
# [21] = target: Gal(b1-3)GalNAc(b1-3)Gal(a1-4)Gal(b1-4)Glc
# Procedure, shortened: as §1
# [22] = target: Gal(b1-3)GalNAc(b1-4)Gal(b1-4)Glc
# Procedure, shortened: as §1
# [23] = target: Gal(b1-3)GalNAc(b1-4)[Neu5Ac(a2-3)]Gal(b1-4)Glc
# Procedure, shortened: as §1
# Gal(b1-3)GlcNAc = target: Gal(b1-3)GlcNAc
# Procedure, shortened: as §1
# [24] = target: Gal(b1-3)GlcNAc(a1-3)Gal(b1-4)GlcNAc
# Procedure, shortened: as §1
# [25] = target: Gal(b1-3)GlcNAc(a1-6)Gal(b1-4)GlcNAc
# Procedure, shortened: as §1
# Gal(b1-3)GlcNAc(b1-2)Man = target: Gal(b1-3)GlcNAc(b1-2)Man
# Procedure, shortened: as §1
# [26] = target: Gal(b1-3)GlcNAc(b1-2)Man(a1-3)[Gal(b1-3)GlcNAc(b1-2)Man(a1-6)]Man(b1-4)GlcNAc(b1-4)GlcNAc
# Procedure, shortened: as §1
binder,measurement,setting,value
Pwp4 (Candida glabrata) (protein) MGSSHHHHHHSSGLVPRGSHMASVGNPITVSNVCSFPKNWHRTAGFRALTARLGIGIQSDSYKELLNYPGTFQLTTQQSSTTKPNFQISGLVGNIYGLTIVPSYLLVELTGYFVPPVSGEYTFSLEGSDDAAIIFIANPSTFKCGHVEDWPTAYDNDVTVTESIHATRTIYMIEGVAYPIRIAYYNGLSLGKLQASFTDPEGVKRVDWNGYIWRYDSCDTCSYV,glycan array binding signal (z-score),[1],0.112
same,glycan array binding signal (z-score),[2],-0.325
same,glycan array binding signal (z-score),[3],-0.246
same,glycan array binding signal (z-score),Fuc(a1-4)GlcNAc,-0.389
same,glycan array binding signal (z-score),Fuc(b1-3)GlcNAc,-0.699
same,glycan array binding signal (z-score),Gal(a1-2)Gal,-0.437
same,glycan array binding signal (z-score),Gal(a1-3)Gal,0.658
same,glycan array binding signal (z-score),Gal(a1-3)Gal(b1-3)GlcNAc,0.293
same,glycan array binding signal (z-score),[4],-0.186
same,glycan array binding signal (z-score),[5],-0.051
same,glycan array binding signal (z-score),[6],-0.55
same,glycan array binding signal (z-score),[7],-0.55
same,glycan array binding signal (z-score),[8],0.361
same,glycan array binding signal (z-score),Gal(a1-3)Gal(b1-4)Glc,0.019
same,glycan array binding signal (z-score),Gal(a1-3)Gal(b1-4)GlcNAc,-0.639
same,glycan array binding signal (z-score),[9],-0.241
same,glycan array binding signal (z-score),[10],-0.024
same,glycan array binding signal (z-score),[11],-0.041
same,glycan array binding signal (z-score),[12],-0.355
same,glycan array binding signal (z-score),[13],-0.426
same,glycan array binding signal (z-score),[14],0.161
same,glycan array binding signal (z-score),Gal(a1-3)GalNAc,-0.271
same,glycan array binding signal (z-score),[15],-0.692
same,glycan array binding signal (z-score),[16],0.433
same,glycan array binding signal (z-score),Gal(a1-4)Gal(b1-4)Glc,-0.45
same,glycan array binding signal (z-score),Gal(a1-4)Gal(b1-4)GlcNAc,-0.508
same,glycan array binding signal (z-score),[17],0.209
same,glycan array binding signal (z-score),[18],-0.18
same,glycan array binding signal (z-score),Gal(a1-4)GlcNAc,-0.478
same,glycan array binding signal (z-score),Gal(a1-6)Glc,-0.251
same,glycan array binding signal (z-score),Gal(b1-2)Gal,-0.49
same,glycan array binding signal (z-score),Gal(b1-3)Gal,-0.411
same,glycan array binding signal (z-score),Gal(b1-3)Gal(b1-4)GlcNAc,-0.378
same,glycan array binding signal (z-score),Gal(b1-3)GalNAc,0.272
same,glycan array binding signal (z-score),[19],-0.297
same,glycan array binding signal (z-score),[20],-0.354
same,glycan array binding signal (z-score),Gal(b1-3)GalNAc(b1-3)Gal,-0.51
same,glycan array binding signal (z-score),[21],-0.54
same,glycan array binding signal (z-score),[22],0.554
same,glycan array binding signal (z-score),[23],-0.574
same,glycan array binding signal (z-score),Gal(b1-3)GlcNAc,-0.537
same,glycan array binding signal (z-score),[24],0.711
same,glycan array binding signal (z-score),[25],2.97
same,glycan array binding signal (z-score),Gal(b1-3)GlcNAc(b1-2)Man,-0.297
same,glycan array binding signal (z-score),[26],0.367
